The full ranking holds about 110,000 compounds; the median of “z-score” is about -0.1, and the highest 2% start at about 2. The list shows a part of the results. Active and inactive are the calls of the source.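 The calls were made as follows: active = z-score in the third read window above 3 or below -3; inactive = the rest.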
Biological target: Metabotropic glutamate receptor 8 (Rattus norvegicus) (UniProt P70579)
Test: rat mGluR8 modulators via GIRK flux, primary screen, cell-based, thallium flux, HTS (AID 488969)
Conditions: HEK293 rat mGluR8, GIRK (G protein-gated inwardly rectifying potassium channel) thallium flux, FluoZin2; at 10 µM; stronger effect = higher value; submaximal glutamate (EC20) added with thallium

Chain of UniProt P70579 (P70579 whole entry, looked up): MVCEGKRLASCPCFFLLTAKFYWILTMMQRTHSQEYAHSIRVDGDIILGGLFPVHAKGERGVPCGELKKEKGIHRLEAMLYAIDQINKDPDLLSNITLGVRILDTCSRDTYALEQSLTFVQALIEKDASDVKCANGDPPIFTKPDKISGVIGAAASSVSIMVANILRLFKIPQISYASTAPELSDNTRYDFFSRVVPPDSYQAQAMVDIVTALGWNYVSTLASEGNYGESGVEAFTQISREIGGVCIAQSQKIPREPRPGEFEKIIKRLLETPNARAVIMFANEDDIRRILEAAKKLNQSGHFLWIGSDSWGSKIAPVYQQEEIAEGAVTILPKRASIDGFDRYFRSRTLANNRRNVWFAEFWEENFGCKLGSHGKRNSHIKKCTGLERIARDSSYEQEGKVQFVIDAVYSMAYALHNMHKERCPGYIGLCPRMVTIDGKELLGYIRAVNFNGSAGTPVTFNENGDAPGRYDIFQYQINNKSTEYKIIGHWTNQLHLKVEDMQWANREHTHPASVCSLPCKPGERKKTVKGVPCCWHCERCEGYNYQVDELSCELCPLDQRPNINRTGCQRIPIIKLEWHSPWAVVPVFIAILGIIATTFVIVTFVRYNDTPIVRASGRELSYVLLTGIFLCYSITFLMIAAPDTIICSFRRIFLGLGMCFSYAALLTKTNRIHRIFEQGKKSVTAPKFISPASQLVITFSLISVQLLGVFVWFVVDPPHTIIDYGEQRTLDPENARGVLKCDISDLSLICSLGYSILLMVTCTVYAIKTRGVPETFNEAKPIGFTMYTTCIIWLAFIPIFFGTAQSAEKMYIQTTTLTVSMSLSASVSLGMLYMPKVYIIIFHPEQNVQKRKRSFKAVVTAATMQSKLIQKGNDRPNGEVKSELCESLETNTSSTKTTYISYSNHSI

Compound	z-score
COc1ccc(N2CCN(C(=O)CSc3nnc(C)c(=O)[nH]3)CC2)cc1	-0.393
Cc1ccc(SCc2cc(=O)[nH]c(N3CCN(Cc4ccc5c(c4)OCO5)CC3)n2)cc1	-0.465
C/C(=N\NC(=O)c1c(Cl)cnn1C)c1cccc(NC(=O)COc2ccccc2)c1	-0.0839
COc1ccc2ccccc2c1/C=N/NC(=O)c1cccc(Br)c1	-1.24
Cc1ccc(-n2c(C)cc(C=C3C(=O)CC(C)(C)CC3=O)c2C)cc1	-0.0153
Cc1cc(S(=O)(=O)Nc2ccc(C(=O)N3CCN(C(=O)c4ccco4)CC3)cc2)ccc1F	-0.305
CCCN(CC(=O)Nc1cc(Cl)ccc1Cl)C(=O)/C=C/c1ccco1	-0.346
COc1ccc2c(c1)CC/C(=C\Nc1ccc3c(c1)OCO3)C2=O	-0.324
CN1CCN(C(CNS(=O)(=O)c2ccc(Cl)cc2)c2cccnc2)CC1 (configuration not stated)	-0.426
C=CCn1c(Cc2ccc(OC)cc2)nnc1SCC(=O)NCCc1ccccc1	-0.118
CCOc1c(Br)cc(/C=N\NC(=O)c2ccccc2)cc1OC	-0.466
CNC(=O)c1ccc(Nc2nnc(C)c3ccccc23)cc1	-0.0102
C=CCn1c(SCC(=O)c2c(N)n(CCC)c(=O)n(C)c2=O)nc2sc(CC)cc2c1=O	-0.862
CC(NC(=O)Nc1ccc(O)cc1)(C(F)(F)F)C(F)(F)F	0.187
OC(CNCCc1ccc(C(F)(F)F)cc1)COc1cccc2ccccc12 (configuration not stated)	-2.23
CC(NC(=O)CCC1COc2ccccc2O1)c1ccccc1 (configuration not stated)	-0.277
Cc1ccc(Cn2c(SCC(=O)N/N=C/c3ccc(C)o3)nc3ccccc32)cc1	-0.169
O=C(O)c1ccccc1N/N=C\c1ccnc2ccccc12	0.716
CC(C)(C)c1ccc(-c2n[nH]c(=S)n2C2CCCC2)cc1	active: 4.4
COC(=O)c1ccc(C(C(=O)NC2CCCCC2)N(C(=O)Cc2cccs2)C2CC2)cc1 (configuration not stated)	-0.377
Cc1ccc(-c2nc(N)sc2CC(=O)OCC(=O)NCCC(C)C)cc1	-1.61
CCCC(=O)Nc1nnc(SCC)s1	0.0928
CCOC(=O)c1c(-c2ccccc2)oc2ccc(O)c(CN3CCOCC3)c12	-0.29
Cc1ccc(C)c(S(=O)(=O)N2CCN(C(=O)c3cnccn3)CC2)c1	0.456

Compound	z-score
COc1oc(-c2ccc(Cl)cc2)nc1C(F)(F)F	-0.129
CCOC(=O)c1nc2ccccc2nc1C	-0.122
N#CC1=C(N)C(C#N)(C#N)C(c2cccnc2)C2CN(C(=O)OCc3ccccc3)CC=C12 (configuration not stated)	-0.373
Cc1cccc2sc(NC(=O)CCNS(=O)(=O)c3cccs3)nc12	0.312
O=C(CCNC(=O)OCc1ccccc1)NC1CCCCCC1	-0.182
CCOc1ccc(/C=C2/SC(=S)N(n3c(C)ccc3C)C2=O)cc1	0.164
CC(Sc1nc2cc([N+](=O)[O-])ccc2n1-c1cccc(C(F)(F)F)c1)C(=O)NC(N)=O (configuration not stated)	0.945
CSc1snc(SCC(N)=O)c1C#N	-0.211
Cc1cc(C)n2nc(C(=O)NCc3ccco3)nc2n1	0.654
O=C(Nc1ccc(Cl)cc1)Nc1nc(-c2sccc2Br)cs1	-0.223
CC1CN(Cc2cc(=O)[nH]c(C3CC3)n2)CC(C)O1 (configuration not stated)	-0.155
CC(OC(=O)c1cccs1)C(=O)NCc1ccco1 (configuration not stated)	-0.226
COc1ccc(NC(=S)NNc2ccc([N+](=O)[O-])cc2S(=O)(=O)Nc2ccc(C)cc2C)cc1	-0.391
O=C(Nc1cccc(O)c1)N1CCOCC1	0.81
Cc1cc(C)n(-c2nc(Nc3ccccc3C)nc(-n3nc(C)cc3C)n2)n1	0.188
Cc1ccc(-c2csc(/C(C#N)=C/Nc3ccc4c(c3)OCCO4)n2)cc1	-0.113
CCCCC(=O)Nc1cc(C(=O)NCCc2ccccc2)ccc1Cl	0.145
CO/N=C(\c1nonc1N)N1CCN(c2ccc(Cl)cc2[N+](=O)[O-])CC1	-0.123
O=C1CC(N2CCN(Cc3ccc4c(c3)OCO4)CC2)C(=O)N1c1cccc(Cl)c1 (configuration not stated)	-0.0663
CCC(=O)Nc1cc(C)c(NC(=O)CCc2ccccc2)cn1	-0.854
Cn1ncc(N=Cc2ccccc2O)c1C(=O)N1CCOCC1	0.16
NC(=O)c1ccsc1NC(=O)c1ccco1	-0.0583
Cc1nnsc1S(=O)(=O)Cc1ccccc1Cl	0.423
CCN1C(=O)S/C(=C\c2ccc(N3CCOCC3)cc2C)C1=O	-0.101

Compound	z-score
O=C(c1ccc(F)cc1)N1C2CCC1CC(O)(c1ccccc1F)C2 (configuration not stated)	-0.291
Cc1cccc(C)c1NC(=O)COC(=O)C1Cc2ccccc2CN1C(=O)c1ccccc1 (configuration not stated)	-0.378
O=C(CNCC1CCCO1)Nc1ccccc1N1CCCCCC1 (configuration not stated)	-0.099
COc1ccc(S(=O)(=O)CCC(=O)O)cc1	0.0651
Cc1ccc(C)c2c1[nH]c1ccc([N+](=O)[O-])cc12	-0.0383
COc1ccc(CCNC(=S)Nc2cccc(C)c2)cc1	0.881
CC(C)CNC(=S)NC(=O)c1ccccc1Cl	active: 8.99
CSc1ccccc1NC(=O)Nc1ccc(F)c(Cl)c1	-0.197
Cc1ccc(-c2ccc(SCC(=O)Nc3nonc3C)nn2)cc1	-2.16
CCn1c(SC(=O)NC2CCCCC2)nnc1-c1cccs1	0.837
Cc1ccc(C)c(NC(=S)Nc2ccc(S(=O)(=O)Nc3ncccn3)cc2)c1	0.1
CCn1c(-c2cc(-c3cccc(OC)c3)nc3ccccc23)n[nH]c1=S	1.92
CC12CCC(C(=O)Nc3ccccc3Br)(C/C1=N\O)C2(C)C (configuration not stated)	-0.427
COc1ccc(CC(=S)N2CCOCC2)cc1	-0.09
O=C1CC(c2c[nH]c3ccccc23)C(=O)N1 (configuration not stated)	0.297
CCCCCC(=O)N/N=C/c1ccco1	-0.231
O=C(CNS(=O)(=O)c1ccccc1)N/N=C\c1ccc(Cl)cc1	-0.283
COc1ccc(N2C(=O)C(Cl)=C(N3CCN(Cc4ccccc4)CC3)C2=O)cc1	0.342
O=C(CSc1nnnn1-c1cccc2ccccc12)Nc1ccc(N2CCOCC2)c(Cl)c1	0.0404
O=C1C(=C(c2ccccc2)c2ccccc2)Nc2ccccc21	-1.32
O=C(Nc1ccccc1Cl)N1CCN(C/C=C/c2ccccc2)CC1	0.262
Cc1cccc(-c2nc(CSCC(=O)N3CCN(c4ccccn4)CC3)c(C)o2)c1	-1.37
NC(=O)c1ccc(NC(=O)COC(=O)/C=C/c2cn(-c3ccccc3)nc2-c2cccnc2)cc1	-0.0296
Cc1cc(C(=O)CN2C(=O)NC(C)(CC(C)C)C2=O)c(C)n1-c1ccc2c(c1)OCO2 (configuration not stated)	-0.498
